# Laboratory results published in US20220296736A1, “ADMINISTRATION OF THERAPEUTIC AGENTS TO BRAIN AND OTHER CELLS AND TISSUE” (priority 2019, published 2022).
# Tested on: BBB in cerebral cortex
structure (smiles),measurement,setting,value
OC[C@@H](O)[C@@H](O)[C@H](O)[C@H](O)CO [mannitol],exposure required for effective cortical BBB disruption,IA with coordinated closure of cCCA,around 3 minutes
same,Gd-CE average signal change area (BBBO territory),"T1-weighted scan after IA mannitol, four mice",26.50±3.40%
